Hit rate of the full screen: of about 310,000 compounds, about 14,000 (4.5%) showed an effect of 50% or more. The effect is printed as a negative number. Some of the results follow.
These compounds were tested against human ether-à-go-go-related gene (hERG) potassium channel (human, UniProt Q12809) (assay: primary screen, population patch clamp on CHO cells stably expressing hERG).
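Note: peak tail current of the secondary pulse compared with the same well before compound.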

Sequence of human ether-à-go-go-related gene (hERG) potassium channel (Q12809 whole entry, looked up): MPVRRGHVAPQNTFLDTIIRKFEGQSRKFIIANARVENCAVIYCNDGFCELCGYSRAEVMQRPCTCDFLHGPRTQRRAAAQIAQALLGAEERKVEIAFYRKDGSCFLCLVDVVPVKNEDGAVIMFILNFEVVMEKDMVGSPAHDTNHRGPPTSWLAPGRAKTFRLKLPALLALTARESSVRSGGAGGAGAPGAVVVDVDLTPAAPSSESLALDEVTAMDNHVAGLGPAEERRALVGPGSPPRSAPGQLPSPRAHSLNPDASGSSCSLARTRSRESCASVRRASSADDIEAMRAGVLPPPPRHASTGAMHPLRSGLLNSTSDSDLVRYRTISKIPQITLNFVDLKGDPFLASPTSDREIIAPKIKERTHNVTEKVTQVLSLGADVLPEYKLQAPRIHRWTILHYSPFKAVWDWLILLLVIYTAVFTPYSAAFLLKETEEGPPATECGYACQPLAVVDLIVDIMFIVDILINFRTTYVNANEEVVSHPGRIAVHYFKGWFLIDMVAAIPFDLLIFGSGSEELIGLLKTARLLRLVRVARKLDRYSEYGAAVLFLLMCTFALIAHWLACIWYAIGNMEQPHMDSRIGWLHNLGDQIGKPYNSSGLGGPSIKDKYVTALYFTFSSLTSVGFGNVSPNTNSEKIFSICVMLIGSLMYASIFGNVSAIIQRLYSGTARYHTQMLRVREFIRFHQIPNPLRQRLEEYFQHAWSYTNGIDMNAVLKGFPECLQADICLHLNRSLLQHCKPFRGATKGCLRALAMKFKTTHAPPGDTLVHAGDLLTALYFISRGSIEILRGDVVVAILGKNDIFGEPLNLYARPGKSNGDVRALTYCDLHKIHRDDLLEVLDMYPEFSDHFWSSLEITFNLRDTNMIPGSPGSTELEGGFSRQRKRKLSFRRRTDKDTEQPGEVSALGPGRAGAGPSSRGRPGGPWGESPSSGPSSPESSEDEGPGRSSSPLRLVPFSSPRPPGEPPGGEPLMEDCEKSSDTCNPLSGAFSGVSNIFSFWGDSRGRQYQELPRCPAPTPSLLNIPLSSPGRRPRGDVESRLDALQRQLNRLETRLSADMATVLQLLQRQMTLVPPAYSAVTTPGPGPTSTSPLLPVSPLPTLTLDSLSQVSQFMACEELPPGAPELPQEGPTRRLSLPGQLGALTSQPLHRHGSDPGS

Compound | hERG current change (%, negative = inhibition) at 10uM [%]
CCC(=O)N1CCN(c2ccc(NC(=O)COc3cccc(C)c3C)cc2)CC1 | -12
Cc1ccc(Cl)cc1NC(=O)CC1NCCNC1=O (stereo not shown) | 13.6
COc1ccc(-c2cn3cccnc3n2)cc1Br | -14
CCN(C(=O)COC(=O)COc1ccc2c(C)cc(=O)oc2c1)C1CCS(=O)(=O)C1 (stereo not shown) | 0.368
Cc1cc(C)c2c(c1)-c1c(ssc1=S)C(C)(C)N2C(=O)CN1C(=O)c2ccccc2C1=O | -22
O=C(Nc1cccc(C(=O)N2CCOCC2)c1)c1ccccc1Cl | -17
N#Cc1c(NCCCO)nc(NCc2ccccc2)c2c1CCN(Cc1ccccc1)C2 | -43.4
CN(C(=O)COC(=O)c1cc(S(=O)(=O)N2CCCCC2)ccc1Cl)c1ccccc1 | -7.91
O=C(NCCCn1ccnc1)c1cc2c(s1)CCCC2 | -1.81
CCOC(=O)c1ccc(NC(=S)N2CCCC(C(=O)N3CCCC3)C2)cc1 (stereo not shown) | -9.48
CC(C)c1ccc(OCC(=O)Nc2ccc3oc(=O)ccc3c2)cc1 | 14.3
O=C(CSc1ccc([N+](=O)[O-])cn1)Nc1ccc2c(c1)OCCO2 | 12.8
CCOc1ccc(NCc2nnc(SCC(=O)Nc3nc(-c4ccccc4)cs3)n2-c2ccccc2)cc1 | 0.783
COc1ccc(C2NC(=O)NC3=C2C(=O)CCC3)cc1 (stereo not shown) | 13.7
CC1CC(C)CN(S(=O)(=O)c2cc(C(=O)O)c(Cl)s2)C1 (stereo not shown) | 6.3
CCn1cc(C(=O)N[C@H](C(=O)NCCCOC)C(C)C)c(=O)c2cc3c(cc21)OCO3 | 13.1
COc1ccc2[nH]c(=O)c(CN(Cc3cccnc3)S(=O)(=O)c3ccccc3F)cc2c1 | 9.74
Cc1cc(C)c2nc(NC(=O)C3CSC4(C)CCC(=O)N34)sc2c1 (stereo not shown) | 24.2
CC(C)(C)c1ccc(-c2n[nH]c(=S)n2CCCN2CCOCC2)cc1 | 24.9
CCOc1ccc(OCC(=O)Nc2ccc(S(=O)(=O)Nc3cc(C)nc(C)n3)cc2)cc1 | 16.4
Cc1nn(CC(=O)N2CCC(C)CC2)c(=O)c2nn(-c3ccccc3)c(C)c12 | 10.2
O=C(N/N=C/c1cc(Br)c(O)c(Br)c1O)c1cccnc1 | -2.32

Compound | hERG current change (%, negative = inhibition) at 10uM [%]
CSC1=N/C(=C\c2ccc(Cl)cc2)C(=O)N1N(C)C | 2.92
O=C(CSc1ccccc1C(=O)O)NC1CCCCCCC1 | 17.6
c1ccc(-n2c(-c3ccncc3)nnc2N2CCOCC2)cc1 | 16.9
NC(=O)C1CCN(Cc2nc3ccccc3c(=O)[nH]2)CC1 | 6.56
O=C(c1ccc(Br)cc1)N1CCCc2ccccc21 | -6.19
COc1ccc(/C=N/NC(=O)CCCC(=O)NC2CCCCC2)cc1 | 5.06
CCC(=O)Nc1c2c(nn1-c1ccc([N+](=O)[O-])cc1)CS(=O)(=O)C2 | 10
C=CCc1cc(Cl)ccc1OC(=O)Nc1cccc(Cl)c1 | 2.47
COc1cc(/C=C2\C(=O)ON=C2c2ccccc2)cc(Cl)c1O | -49.9
Cc1nc(-c2cccc(NS(=O)(=O)c3ccccc3)c2)cs1 | -13.6
Cc1[nH]nc2c1C(c1ccc(-c3ccccc3C#N)o1)C(C#N)=C(N)O2 (stereo not shown) | 13.9
Cc1ccc2cc(CCNC(=O)c3ccco3)c(=O)[nH]c2c1 | -13.6
CN1C(=O)CC(n2c(CO)nc3ccccc32)C1=O (stereo not shown) | 3.49
COc1cc(/C=C2\C(=N)N3N=CSC3=NC2=O)cc(Br)c1OC(=O)c1ccco1 | 8.78
CCOC(=O)c1ccc(CC(=O)c2ccc(O)cc2O)o1 | -4.15
CC1=C(C)CC(C(=O)NCCc2ccc(F)cc2)C(C(=O)O)C1 (stereo not shown) | -2.21
COc1ccc(N(CC(=O)NC2CCCCC2)C(=O)CNC(=O)c2cccs2)cc1OC | 8.73
O=S(=O)(NCc1ccc(F)cc1)c1ccc(-c2cnc(C3CC3)o2)cc1 | 13.5
CC(Oc1ccc(Cl)cc1)C(=O)N1CCN(C(=O)c2ccco2)CC1 (stereo not shown) | -29.5
COc1ccc(/C=C(\NC(=O)c2cccs2)C(=O)Nc2cccc3ccccc23)cc1OC | -7.06
CCOc1ccccc1Oc1coc2cc(OC)ccc2c1=O | 14.5
CCCN1CCN(S(=O)(=O)c2cn(C)nc2C)CC1 | 22

Compound | hERG current change (%, negative = inhibition) at 10uM [%]
COc1ccc(C(O)(C(=O)NNc2ccc(C)cc2)c2cccs2)cc1 (stereo not shown) | 1.33
CCn1c(CNC(=O)c2cccc(C)c2)nnc1SCC(=O)Nc1nnc(C)s1 | 15.4
CN(CC(=O)Nc1cccc(F)c1)C(=O)Cn1c(=O)cnc2ccccc21 | -10.7
COC(=O)c1c(C)n(-c2ccccc2)c2ccc(O)cc12 | -7.31
N/C(Cc1ccc([N+](=O)[O-])cc1)=N\OC(=O)COc1ccc2ccccc2c1 | -14.4
Cc1onc(-c2c(F)cccc2Cl)c1C(=O)OCC(=O)NCc1ccccc1 | -27.8
COc1ccccc1C(=O)N/C(=C\c1cn(S(=O)(=O)N(C)C)c2ccccc12)C(=O)N1CCOCC1 | 14.9
CCCCC1CCC(C(=O)NCC(c2ccco2)N2CCOCC2)CC1 (stereo not shown) | 2.06
O=c1cc(N2CCOCC2)[nH]c(=O)n1Cc1ccc(F)cc1 | 20
CCC(CC)COC(=O)C1=C(C)NC(=O)NC1c1cccc([N+](=O)[O-])c1 (stereo not shown) | 15.1
OC(CNc1ncnc2sccc12)c1ccccc1 (stereo not shown) | 2.14
CN(c1ccc(Cl)cc1)S(=O)(=O)c1nnc(NC(=O)c2ccco2)s1 | 16.9
COc1ccc(C2/C(=C(/O)c3ccc4c(c3)CC(C)O4)C(=O)C(=O)N2CCN2CCOCC2)cc1 (stereo not shown) | -4.07
COC(=O)c1ccsc1NC(=O)c1cccc(OC)c1 | 1.44
C=CCc1cc(C=C2C(=O)NC(=O)NC2=O)cc(OC)c1OCc1ccc(C(=O)O)cc1 | 2.75
CCCC(=O)Oc1ccc(C2NC(=O)c3ccccc3O2)cc1OC (stereo not shown) | 11.6
O=C(CC1Oc2ccccc2NC1=O)NCc1ccc(Cl)cc1 (stereo not shown) | 5.13
CC(C)Oc1ccc(C2C(C#N)=C(N)Oc3c2oc(CO)cc3=O)cc1 (stereo not shown) | -7.32
C/C(=N/NC(=O)CN1CCN(S(=O)(=O)c2ccc(C)cc2)CC1)c1cccc(O)c1 | -15
O=C(NNC(=O)c1cc(Cl)ccc1O)c1ccc(NS(=O)(=O)c2cccs2)cc1 | -20.7
CCN1C2=C(C(=O)CCC2)C(c2ccc(O)cc2)C2=C1CCCC2=O | 6.21
C=CCNC(=O)COC(=O)CCC(=O)c1cccs1 | 1.42

Compound | hERG current change (%, negative = inhibition) at 10uM [%]
CCOC(=O)C1(Cc2ccccc2)CCN(Cc2cnn(CC)c2)CC1 | -21.2
C/C(=N\NC(=O)COc1ccc(C)cc1[N+](=O)[O-])c1cccs1 | 22.5
CCOC(=O)c1c(C)[nH]c(C)c1S(=O)(=O)N(C)CC(=O)NCc1cccc(Br)c1 | -25.1
C[C@@H]1CCCCCCCCC(=O)OCCN1C(=O)OC(C)(C)C | -25.1
Cc1ccc(N(Cc2ccc(C(=O)NCCSc3ccccn3)cc2)S(C)(=O)=O)cc1C | -4.82
CC(C)c1ccccc1NC(=O)COc1ccc2c(=O)c(Oc3ccc4ccccc4c3)coc2c1 | 13.7
Cc1ccc(NS(=O)(=O)c2ccc3[nH]c(=O)[nH]c3c2)cc1 | 21
COC(=O)c1ccc(CNC(=O)COc2ccccc2Br)o1 | -9.48
CCn1c(SCC(=O)Nc2ccc(N3CCOCC3)cc2)nnc1-c1ccco1 | -9.78
Cc1ccc(CCNS(=O)(=O)c2cc3c(cc2C)n(C)c(=O)c(=O)n3C)cc1 | -30.8
COc1ccc(C(C)=O)cc1CC(=O)NC1CCCCCC1 | 0.141
Cc1ccc(C(=O)N2CCN(S(=O)(=O)c3ccc(C)c([N+](=O)[O-])c3)C2)cc1 | -42.7
CS/C(=C\[N+](=O)[O-])Nc1ccc(Cl)cc1 | 5.73
CCOCCCNC(=O)c1cn(CC(C)C)c(=O)c2c1c1ccccc1n2C | 16.8
O=[N+]([O-])c1ccc(Nc2ccccc2)cc1 | -0.75
C#CCOCCOCCOCCNc1nc(N2CCN(C(=O)[C@H](C(C)C)n3cc(CCO)nn3)CC2)nc(N2CCN(C(=O)[C@H]([C@@H](C)CC)n3cc(CCCC[NH3+])nn3)CC2)n1.[Cl-] | 11.9
CCCCN1C(=O)NC(=O)C2(Cc3c(nc4ccccn4c3=O)N3CCc4ccccc4C32)C1=O (stereo not shown) | -16.6
Cc1onc(-c2c(Cl)cccc2Cl)c1COC(=O)c1ccc(Cl)cc1 | 10.8
COc1ccc(NC(=O)CCN2CCN(S(=O)(=O)c3ccc(Br)cc3)CC2)cc1 | -4.14

From paper PMC4336329 (PLoS ONE, 2015)
